According to PubChem BioAssay AID686978 (National Center for Advancing Translational Sciences (NCATS), 2013):
Where “and” joins values, the source holds several entries; their conditions need not be identical. Equal entries are not always repeated. The whole screen tested about 420,000 compounds, of which about 64,000 (15%) were called active. The inconclusive results got no clear call from the source; some entries with a clear call stand among them for comparison. Calls follow the shape of the dose curve; as a rule, active = well fitted inhibition curve with a large enough effect; inconclusive = small, poorly fitted or top-dose-only effect; inactive = flat fitted curve, though single readings scatter. Where the call is inconclusive, the potency comes from a doubtful curve fit.

Assay: qHTS for Inhibitors of human tyrosyl-DNA phosphodiesterase 1 (TDP1): qHTS in cells in absence of CPT; also: nearly all actives have a fitted effect of over 55% in size
Conditions: DT40 Tdp1-/- hTDP1 cells, no CPT, ATP luminescence, 48 h; activity change, negative = growth inhibition: at 46.2 µM (top of the series) unless noted
In short: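 No-CPT arm: Tdp1-/-;hTDP1 DT40 cells (400/well) plus compounds, incubated ≥48 hr at 37 °C. Readout CellTiter-Glo luminescence.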
% is scaled to controls: 0 for no effect and ±100 for the full control effect; potency is read from the fitted curve at half-maximal effect; tags tell the direction and shape of the fitted curve.

Compound | Potency | activity change, negative = growth inhibition
Cc1cccc(NC(=O)N2CCC(CN3CCc4ccccc4C3)CC2)c1C | inconclusive: 20.6 µM [inhibitor, single point] | –
Cc1nn(C(=O)c2ccco2)c(C)c1Sc1ccc([N+](=O)[O-])cc1 | inconclusive: 18.4 µM [inhibitor, single point] | –
Brc1ccc2nc(-c3ccco3)c(CC3CCCCC3)n2c1 | inconclusive: 16.4 µM [inhibitor, single point] | –
COc1nc(Cc2ccc(Cl)cc2)nc2ccccc12 | – | inconclusive: -31.9% [inhibitor]
Cc1nc2ccccc2c(=O)n1C1CCCCCC1 | inconclusive: 16.4 µM [inhibitor, single point] | –
CC(=O)Oc1ccc(-c2cccc(C(=O)N3CCCCC3)c2)cc1 | inconclusive: 23.1 µM [inhibitor, partial curve] | –
CC(C)Oc1cccc(C(=O)NC(=S)Nc2ccc3c4c(cccc24)CC3)c1 | inconclusive: 29.1 µM [inhibitor, single point] | –
COc1ccccc1-c1coc2c(CN3CCOCC3)c(O)ccc2c1=O | inactive | –
N#Cc1ccc(C(=O)N2CCC3CC2c2cc(-c4ccccc4)ccc23)cc1 (stereo not drawn) | inconclusive: 23.1 µM [inhibitor, single point] | –
O=C(Nc1ccc(C(=O)N2CCCCC2)cc1)c1ccc(Br)cc1 | inconclusive: 23.1 µM [inhibitor, partial curve] | –
CCN(C(=O)CSc1nnc2ccccn12)c1c(N)n(Cc2ccccc2)c(=O)[nH]c1=O | inactive | –
COc1ccc2ccccc2c1CN1CCOc2ccc(CN3CCN(CCO)CC3)cc2C1 | inconclusive: 29.1 µM [inhibitor, single point] | –
COc1ccc(-c2nn(-c3ccccc3)cc2CO)cc1 | inconclusive: 2.06 µM [inhibitor, partial curve, poor fit] | –
O=[N+]([O-])c1cccc(COc2ccccc2CN2CCOCC2)c1 | inconclusive: 11.6 µM [inhibitor, partial curve, poor fit] | –
COC(c1ccc(Cl)cc1)(c1ccc(Cl)cc1)C(Oc1nc(C)cc(C)n1)C(=O)O (stereo not drawn) | active: 14.6 µM | –
CC12CCC(C/C1=N/O)C2(C)CBr (stereo not drawn) | inactive | –
O=C(Nc1cc(C(F)(F)F)ccc1N1CCOCC1)c1cccc(S(=O)(=O)N2CCOCC2)c1 | inconclusive: 23.1 µM [inhibitor, single point] | –
Cc1c(C)n(CCCN(C)C)c2ncnc(NCc3ccccc3)c12 | inactive | –
COCCN1CCN(C(=O)c2cnn(-c3nccc(-c4ccccc4F)n3)c2-c2ccco2)CC1 | inactive | –
CCCCNC(=S)NNC(=O)c1ccc(Br)o1 | inconclusive: 18.4 µM [inhibitor, single point] | –
C[C@@H]1CN([C@@H](C)CO)C(=O)c2cc(Br)cnc2O[C@H]1CN(C)Cc1cccnc1 | inactive | –
CCN(C(=O)c1oc2ccc(S(=O)(=O)N3CCCCCC3)cc2c1C)c1ccccc1 | active: 14.6 µM | –
CC(=O)c1c(C)[nH]c(C(=O)CSc2nnc(C)s2)c1C | inconclusive: 25.9 µM [inhibitor, partial curve, poor fit] | –

Compound | Potency | activity change, negative = growth inhibition
COc1ccc(CCC(=O)Nc2cc(Cl)ccc2OC)cc1 | inconclusive: 13 µM [inhibitor, partial curve] | –
Cc1nn(CC(=O)O)c(C)c1Cl | inconclusive: 0.58 µM [inhibitor, full curve] | –
CCOC(=O)c1cccc(NC(=O)CN2C(=O)CC(C)(C)Sc3ccccc32)c1 | inconclusive: 20.6 µM [inhibitor, single point] | –
CCN1C(=O)c2cccc3c(S(=O)(=O)Nc4nc(C)cs4)ccc1c23 | inconclusive: 29.1 µM [inhibitor, single point] | –
O=C(CSc1nc2ccccc2c(=O)n1CCCN1CCOCC1)Nc1ccc(Br)cc1 | inconclusive: 23.1 µM [inhibitor, single point] | –
Cn1c2c(c(=O)[nH]c1=O)C(c1cccc(O)c1)C1=C(N2)c2ccccc2C1=O (stereo not drawn) | active: 8.2 µM | –
Cc1ccc(-n2ncc(C(=O)NCCN3CCc4ccccc4C3)c2C2CCN(C(=O)OC(C)(C)C)CC2)cc1 | active: 18.4 µM | –
Cc1cccc(C)c1OCc1nc2c3cnn(-c4cccc(F)c4)c3ncn2n1 | active: 16.4 µM | –
CCN(CC)CCN(C(=O)c1ccc(S(=O)(=O)N(CC)c2ccccc2)cc1)c1nc2c(OC)ccc(OC)c2s1 | inconclusive: 29.1 µM [inhibitor, single point] | –
CC(=O)Nc1ccc(NC(=O)C2CC(=O)Nc3nc4ccccc4n32)cc1 (stereo not drawn) | inactive | –
COc1ccc(-n2nc3ccc(N)cc3n2)cc1Cl | inconclusive: 29.1 µM [inhibitor, single point] | –
CS(=O)(=O)N1CCC2(CCCN(C(c3ccccc3)c3ccccc3)C2)CC1 | inconclusive: 29.1 µM [inhibitor, single point] | –
CCn1c(CNC(=O)COc2ccc(C(C)C)cc2)nnc1SCC(=O)Nc1ccccc1 | – | inconclusive: -30.5% [inhibitor]
O=C(NCCCn1ccnc1)c1sc2cccc(F)c2c1Cl | inconclusive: 10.3 µM [inhibitor, partial curve] | –
COc1ccccc1S(=O)(=O)Cc1ccc(C(=O)N2CCN(c3ccccn3)CC2)o1 | inconclusive: 23.1 µM [inhibitor, single point] | –
CCCC#Cc1cnc2c(c1)C(=O)N([C@H](C)CO)C[C@@H](C)[C@H](CN(C)S(=O)(=O)c1cccc(OC)c1)O2 | active: 10.3 µM | –
CC1(C)CC(n2c(NCCO)nc3c(c2=O)C2(CCCC2)Cc2ccccc2-3)CCO1 (stereo not drawn) | inconclusive: 16.4 µM [inhibitor, partial curve] | –
O=C(Nc1ccccn1)c1ccccc1 | inactive | –
Cc1ccc(Nc2c(-c3ccc(N4CCOCC4)cc3)nc3ncccn23)cc1 | inconclusive: 25.9 µM [inhibitor, single point] | –
COc1cc(C)c(NC(C)C(=O)c2c(C)[nH]c3ccccc23)cc1OC (stereo not drawn) | inconclusive: 35.5 µM [inhibitor, single point] | –
CC(=O)OC[C@H]1COc2ccc3ccccc3c2[C@H]1N(C)C(C)=O | inconclusive: 32.6 µM [inhibitor, single point] | –
CC(=O)Oc1cccc(/C=c2\sc3nc(-c4ccco4)nn3c2=O)c1 | active: 16.4 µM | –
O=C(CNc1n[nH]c(=O)[nH]c1=O)N/N=C/C1CC=CCC1 (stereo not drawn) | – | inconclusive: -23.7% [inhibitor]

Compound | Potency | activity change, negative = growth inhibition
Cc1ccc(C(=O)Nc2c(C(=O)NCc3ccc(Cl)cc3)sc3nc(C)cc(C)c23)cc1 | active: 13 µM | –
O=CNc1cc(-c2ccc(C(=O)NC3CC3)cc2)cn2c(-c3ccc(F)cc3)cnc12 | active: 23.1 µM | –
O=C1Nc2ccc(Br)cc2C1(O)c1ccc(F)cc1 (stereo not drawn) | inconclusive: 10.3 µM [inhibitor, partial curve] | –
CC(C)N1C(=O)/C(=C\c2nc3ccccc3c(=O)[nH]2)c2ccccc21 | active: 29.1 µM | –
CCOc1cc(/C=N/O)ccc1OCC(=O)Nc1cccc(C)c1 | inconclusive: 18.4 µM [inhibitor, single point] | –
COc1cccc(/C=N/NC(=O)CNC(=O)CCc2ccccc2)c1O | inconclusive: 18.4 µM [inhibitor, single point] | –
C[C@H](NC(=O)c1nc[nH]c1C(=O)N(C)CCO)c1ccccc1 | inactive | –
COCCn1c(SCC(=O)NCCCN2CCCC2=O)nc2sc3c(c2c1=O)CCCC3 | inactive | –
CCN1CCN(c2cc3c(cc2F)c(=O)c(C(=O)O)cn3C2CC2)CC1 | inconclusive: 8.2 µM [inhibitor, partial curve] and inconclusive: 4.11 µM [inhibitor, single point] | –
CC(Sc1nc(-c2ccc(F)cc2)cs1)C(=O)N1c2ccccc2CC1C (stereo not drawn) | inconclusive: 29.1 µM [inhibitor, single point] | –
COc1ccccc1COCC(O)CN(Cc1ccco1)Cc1ccccc1O (stereo not drawn) | inconclusive: 20.6 µM [inhibitor, single point] | –
CC(C)Oc1ccc(S(=O)(=O)N2CCCCC2)cc1NC(=O)C1CCC1 | inconclusive: 29.1 µM [inhibitor, single point] | –
COc1cc(C2CC(=O)c3c([nH]c(C(=O)OC4CCCCC4)c3C)C2)cc(OC)c1OC (stereo not drawn) | active: 2.06 µM | –
O=[N+]([O-])c1ccccc1S(=O)(=O)Nc1cccc(-c2ccc3nncn3n2)c1 | inconclusive: 14.6 µM [inhibitor, partial curve, poor fit] | –
C[n+]1ccccc1N1CCN(c2ccccc2Cl)CC1 | inconclusive: 29.1 µM [inhibitor, single point] | –
Cc1ccccc1NC1=NCC(c2ccc([N+](=O)[O-])cc2)S1 (stereo not drawn) | inconclusive: 29.1 µM [inhibitor, single point] | –
COc1ccccc1CNC(=O)CSc1nc2ccccc2c(=O)n1CCCN1CCOCC1 | inactive | –
CC(=O)Nc1ccc(-c2ccnc3c2CC(C(=O)NCC2CC2)O3)cc1 (stereo not drawn) | active: 8.2 µM | –
Cc1ccc2nc(CSc3nnc(Cc4cccs4)n3C3CCCCC3)cc(=O)n2c1 | inconclusive: 25.9 µM [inhibitor, single point] | –
O=C(CSc1nc2ccccc2c(=O)n1Cc1ccccc1)Nc1ccc(Br)cc1C(=O)O | inactive | –
CCn1c(SCC(=O)Nc2ccc(OC)cc2)nc2c(c1=O)SCC2 | inconclusive: 5.8 µM [inhibitor, full curve, poor fit] | –
CCCCn1c2ccc(F)cc2c2nnc(SCCN(CC)CC)nc21 | active: 25.9 µM | –
